“And” between values parts separate entries of the source, which are not always exact repeats. Identical values can stand only once. Out of some 200,000 compounds screened, about 4,500 (2.2%) were called active. Inconclusive results, whose numbers are uncertain, are shown with a selection of clear calls. Calls come from the whole dose curve; as a rule, active = well fitted inhibition curve with a large enough effect; inconclusive = small, poorly fitted or top-dose-only effect, or effect the other way; inactive = flat fitted curve, though single readings scatter. A potency beside an inconclusive call is a rough fit, not a confirmed value.
These compounds were tested against Cruzipain (Trypanosoma cruzi) (UniProt P25779) (assay: qHTS Assay for Promiscuous and Specific Inhibitors of Cruzain (without detergent)). Settings: purified cruzain, Z-FR-AMC fluorescence, no detergent.
Summary of the method: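 Detergent-free condition (0.00005% Triton X-100) in acetate buffer pH 5.5 with DTT. 1.5 nM enzyme and compound were pre-mixed 15 min, then 2 uM Z-FR-AMC substrate added; reaction progress from fluorescence change between first and third reads (60 s).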
Note: nearly all actives have a fitted effect of over 40% in size.
Potency is the fitted concentration of half-maximal effect; tags give direction and shape of the fitted curve.
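Throughout, for max response, negative = inhibition: plate controls were enzyme without inhibitor for no effect and buffer without enzyme for full effect.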

Chain of UniProt P25779 (P25779 whole entry, looked up): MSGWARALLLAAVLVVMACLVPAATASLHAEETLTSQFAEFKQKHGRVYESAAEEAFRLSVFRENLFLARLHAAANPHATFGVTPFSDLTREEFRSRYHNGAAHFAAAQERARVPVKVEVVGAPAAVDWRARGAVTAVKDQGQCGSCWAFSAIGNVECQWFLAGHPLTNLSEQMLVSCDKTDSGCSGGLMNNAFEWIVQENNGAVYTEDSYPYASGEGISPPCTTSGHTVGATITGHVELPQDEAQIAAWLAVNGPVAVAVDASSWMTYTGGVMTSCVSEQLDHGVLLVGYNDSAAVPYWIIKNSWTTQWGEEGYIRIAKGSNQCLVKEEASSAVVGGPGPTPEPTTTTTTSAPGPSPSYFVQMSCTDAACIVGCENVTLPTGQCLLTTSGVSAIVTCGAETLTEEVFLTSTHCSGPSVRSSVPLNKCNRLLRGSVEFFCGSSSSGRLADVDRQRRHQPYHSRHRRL

**Q.** For `S=c1[nH]nc(-c2cccc(Br)c2)o1`, which Potency is on record?
**A.** Its Potency is inconclusive: 0.501 µM [inhibitor, full curve].

**Q.** For `CC1=Nc2cc(C(=O)NC3CCCCC3)ccc2Sc2ccc(Cl)cc21`, which Potency is on record?
**A.** Its Potency is active: 25.1 µM.

**Q.** How did the Potency turn out when `Cc1nn(CCC#N)c2nc(-c3ccccc3)cc(C(F)(F)F)c12` was run?
**A.** Its Potency is inconclusive: 25.1 µM [activator, partial curve].

**Q.** Which max response, negative = inhibition does the source give for `Cc1ccc(Cl)cc1NC(=O)c1ccc(NC(=O)N2CCSc3ncccc32)cc1` here?
**A.** Its max response, negative = inhibition is inactive: -2.7%.

**Q.** How did the max response, negative = inhibition turn out when `COc1ccccc1Nc1nc(N)nc(CSC(=S)N2CC(C)CC(C)C2)n1` (stereo not drawn) was run?
**A.** Its max response, negative = inhibition is inactive: -4.3%.

**Q.** `COc1ncnc2c1oc1nc(CC(C)C)c3c(c12)CCCC3` was tested. Which Potency did it give?
**A.** Its Potency is inconclusive: 39.8 µM [activator, single point].

**Q.** `COc1cccc2c1Oc1ncccc1N(c1ccc(C(=O)NCc3ccccc3C)s1)C2` was tested. Which Potency did it give?
**A.** Its Potency is inconclusive: 25.1 µM [inhibitor, single point].

**Q.** With `CCOc1ccc(-n2cc(C(=O)Nc3cccc(Cl)c3)c3cc(OC)c(OC)cc3c2=O)cc1` as the compound, how does the Potency read?
**A.** Its Potency is inconclusive: 25.1 µM [activator, partial curve].

**Q.** `O=C(COc1ccc(Cl)cc1Cl)NC(=S)N1CCCc2ccccc21` was tested. Which Potency did it give?
**A.** Its Potency is inconclusive: 39.8 µM [inhibitor, single point].

**Q.** Which Potency does the source give for `CC(Sc1nnc(-c2ccccc2)c(-c2ccccc2)n1)C(=O)N1CCc2ccccc21` (stereo not drawn) here?
**A.** Its Potency is inconclusive: 31.6 µM [inhibitor, single point].

**Q.** How did the Potency turn out when `CCCCOc1ccc(NC(=O)C(=O)NCCC2=CCCCC2)cc1` was run?
**A.** The Potency was active: 10 µM.

**Q.** `CC(Nc1ccccc1)C(=O)Nc1ccc(F)cc1` (stereo not drawn) was tested. Which max response, negative = inhibition did it give?
**A.** Its max response, negative = inhibition is inactive: 1.2%.

**Q.** `CCc1ccccc1NC(=O)Cn1nnc(-c2nc(-c3ccncc3)no2)c1N` was tested. Which max response, negative = inhibition did it give?
**A.** The max response, negative = inhibition was inactive: 4.71%.

**Q.** With `CCOc1ccc(Nc2c(S(=O)(=O)c3ccc(C)cc3)cnc3cc(OC)c(OC)cc23)cc1` as the compound, how does the Potency read?
**A.** Its Potency is inconclusive: 15.8 µM [activator, partial curve].

**Q.** `Cc1cccc(OCc2nnc(NC(=O)Cc3cccs3)s2)c1` was tested. Which Potency did it give?
**A.** Its Potency is inconclusive: 12.6 µM [inhibitor, partial curve].

**Q.** How did the max response, negative = inhibition turn out when `O=c1c(-c2cccs2)nc2cnc(N3CCNCC3)nc2n1CCc1ccccc1` was run?
**A.** Its max response, negative = inhibition is inactive: 12.2%.

**Q.** With `Cc1ccc(Cn2c(=O)c3c(nc4n3CCCN4Cc3ccccc3)n(C)c2=O)cc1` as the compound, how does the Potency read?
**A.** Its Potency is inconclusive: 39.8 µM [activator, single point].

**Q.** How did the Potency turn out when `CCc1ccc(C2=C(C)C(N3CCC(C(=O)Nc4cccc(OC)c4)CC3)=NS2(=O)=O)cc1` was run?
**A.** The Potency was inconclusive: 3.16 µM [activator, single point].

**Q.** How did the max response, negative = inhibition turn out when `CCOC(=O)CN1C(=O)C2(OCCCO2)c2ccccc21` was run?
**A.** Its max response, negative = inhibition is inactive: -3.97%.

**Q.** `Cc1cccc(NC(=O)CSc2nc(=O)n(Cc3ccncc3)c3c2CCC3)c1C` was tested. Which max response, negative = inhibition did it give?
**A.** The max response, negative = inhibition was inactive: -1.57%.

**Q.** How did the Potency turn out when `COC(=O)[C@@]1(Cc2ccc(F)cc2)[C@H]2c3cc(C(=O)N(C)C)n(CCc4ccccn4)c3C[C@H]2CN1C(=O)c1ccccc1` was run?
**A.** The Potency was inconclusive: 20 µM [activator, partial curve] and inconclusive: 7.94 µM [activator, full curve].

**Q.** `Cc1ccccc1NC(=S)NC(=O)c1cc(-c2ccccc2)nc2ccccc12` was tested. Which Potency did it give?
**A.** The Potency was inconclusive: 39.8 µM [inhibitor, single point].

**Q.** Which Potency does the source give for `CCC(C)(C)NC(=O)C(c1ccc(OC)cc1)N(CC1CCCO1)C(=O)CCC(=O)Nc1cc(C)on1` (stereo not drawn) here?
**A.** The Potency was inconclusive: 31.6 µM [activator, single point].

**Q.** Which Potency does the source give for `Cc1cccc(NC(=O)Cc2coc3ccc4ccccc4c23)n1` here?
**A.** Its Potency is inconclusive: 31.6 µM [inhibitor, single point].

**Q.** With `COc1cc(/C=C2\SC(=Nc3ccccc3)N(CCc3c[nH]c4ccccc34)C2=O)ccc1OC(C)C(=O)O` (stereo not drawn) as the compound, how does the Potency read?
**A.** Its Potency is inconclusive: 6.31 µM [activator, single point].

**Q.** For `C=CCN(c1ccc(C(=O)N2CCN(c3ccc(F)cc3)CC2)cc1)S(C)(=O)=O`, which Potency is on record?
**A.** Its Potency is inconclusive: 25.1 µM [activator, single point].

**Q.** `O=C(c1ccccc1)c1ccc(N2CCOCC2)c(NC(=O)c2ccco2)c1` was tested. Which Potency did it give?
**A.** Its Potency is inconclusive: 39.8 µM [activator, single point].

**Q.** `CC(C)CCOCc1nc2sc3c(c2c(=O)[nH]1)CCC(C)C3` (stereo not drawn) was tested. Which Potency did it give?
**A.** Its Potency is inconclusive: 39.8 µM [inhibitor, single point].

**Q.** For `COc1ccc2[nH]cc(CCNc3ncnc4ccc(-c5ccoc5)cc34)c2c1`, which max response, negative = inhibition is on record?
**A.** The max response, negative = inhibition was inactive: -28.3%.

**Q.** How did the Potency turn out when `O=C(CSc1nc2c(c(=O)[nH]1)CCCC2)Nc1ccc(Cl)cc1F` was run?
**A.** The Potency was inconclusive: 39.8 µM [inhibitor, single point].

**Q.** With `CCCc1nc2oc3c(NCC4CCCO4)ncnc3c2c2c1COC(C)(C)C2` (stereo not drawn) as the compound, how does the Potency read?
**A.** Its Potency is inconclusive: 31.6 µM [activator, single point].

**Q.** With `COc1cc(C(=O)Nc2cccc3ncccc23)cc(OC)c1OC` as the compound, how does the max response, negative = inhibition read?
**A.** Its max response, negative = inhibition is inactive: -2.43%.

**Q.** For `COc1ccc2[nH]c(C)c(CCN(Cc3cccs3)C(=S)Nc3ccc(F)cc3)c2c1`, which Potency is on record?
**A.** Its Potency is inconclusive: 31.6 µM [inhibitor, single point].

**Q.** For `O=C(Nc1nnc(CCS(=O)(=O)c2ccc3ccccc3c2)s1)c1cccs1`, which Potency is on record?
**A.** The Potency was inconclusive: 25.1 µM [inhibitor, single point].

**Q.** For `Cc1ccc(C(=O)NCC(=O)OCC(=O)N2CCCc3ccccc32)cc1`, which Potency is on record?
**A.** The Potency was inconclusive: 20 µM [inhibitor, single point].

**Q.** With `C=CCNC(=O)CSc1nnc(-c2ccccc2Br)n1-c1cccc(C(F)(F)F)c1` as the compound, how does the Potency read?
**A.** The Potency was inconclusive: 31.6 µM [activator, single point].

**Q.** With `CCNC(=S)N(CCc1c(C)[nH]c2ccc(C)cc12)Cc1cc(OC)c(OC)c(OC)c1` as the compound, how does the Potency read?
**A.** Its Potency is inconclusive: 39.8 µM [activator, single point].

**Q.** How did the Potency turn out when `CCOc1ccc(NC(=S)/C(=C(\[O-])c2ccc(C)c([N+](=O)[O-])c2)[n+]2ccccc2)cc1` was run?
**A.** Its Potency is active: 25.1 µM.

**Q.** How did the Potency turn out when `Cc1nc2ccc(S(=O)(=O)N(C)CC(=O)N3CCc4ccccc4C3)cc2s1` was run?
**A.** The Potency was inconclusive: 25.1 µM [activator, single point].

**Q.** For `Cc1ccc(C(=O)Nc2sc(Cc3ccc4c(c3)OCO4)c(C)c2C(N)=O)cc1`, which Potency is on record?
**A.** The Potency was inconclusive: 25.1 µM [inhibitor, single point].

**Q.** With `COc1ccc(Oc2ncc3nc(-c4ccc(Cl)cc4)c(=O)n(C)c3n2)cc1` as the compound, how does the max response, negative = inhibition read?
**A.** The max response, negative = inhibition was inactive: -8.55%.

**Q.** `COCCn1nnnc1C(c1ccc(OC)cc1OC)N1CCN(c2ccccc2)CC1` (stereo not drawn) was tested. Which Potency did it give?
**A.** The Potency was inconclusive: 39.8 µM [activator, single point].

**Q.** How did the max response, negative = inhibition turn out when `Cc1ccc(Cl)cc1NC(=O)c1sc2nc(-c3ccccc3)cn2c1C` was run?
**A.** The max response, negative = inhibition was inactive: 4.03%.

**Q.** With `Cc1ccc(NC(=S)N2CCOCC2)cc1` as the compound, how does the max response, negative = inhibition read?
**A.** Its max response, negative = inhibition is inactive: 11.6%.

**Q.** With `CC(=O)c1cccc(NC(=O)CSc2nnc3ccc(-c4ccc(Cl)cc4)nn23)c1` as the compound, how does the max response, negative = inhibition read?
**A.** Its max response, negative = inhibition is inactive: 11%.

**Q.** With `Cc1cc2c(=O)n(Cc3ccco3)c(SCC(=O)N3CCCc4ccccc43)nc2s1` as the compound, how does the Potency read?
**A.** Its Potency is inconclusive: 39.8 µM [inhibitor, single point].

**Q.** How did the Potency turn out when `CCOc1ccc(Br)cc1S(=O)(=O)Nc1nc(CN2CCOCC2)nc2sc(C)c(C)c12` was run?
**A.** The Potency was inconclusive: 25.1 µM [activator, single point].

**Q.** `CCOC(=O)c1ccc(NC(=O)c2cn(CCC#N)nc2-c2ccc3c(c2)OCCO3)cc1` was tested. Which Potency did it give?
**A.** Its Potency is inconclusive: 39.8 µM [activator, single point].

**Q.** For `CCc1cccc(NC(=O)c2cc3c(=O)[nH]c4ccccc4c3n2C)c1`, which max response, negative = inhibition is on record?
**A.** Its max response, negative = inhibition is inactive: 6.51%.

**Q.** With `COc1ccc(CCNC(=O)Cn2c(=O)cc(C(F)(F)F)c3c(C)nn(C)c32)cc1OC` as the compound, how does the max response, negative = inhibition read?
**A.** Its max response, negative = inhibition is inactive: 5.5%.

**Q.** `Cc1cccc(CCNC(=O)C2CCN(S(=O)(=O)c3cccc4nsnc34)CC2)c1` was tested. Which Potency did it give?
**A.** The Potency was inconclusive: 25.1 µM [inhibitor, single point].

**Q.** How did the Potency turn out when `COc1ccc(-c2cc(C(F)(F)F)nc(SCc3cccc(C(=O)O)c3)n2)cc1` was run?
**A.** Its Potency is inconclusive: 31.6 µM [activator, single point].

**Q.** With `Cc1ccc(NC(=O)c2cc(NC(=O)c3ccco3)ccc2N2CCCCC2)cc1` as the compound, how does the Potency read?
**A.** Its Potency is inconclusive: 3.16 µM [inhibitor, single point].

**Q.** With `CC(C)CN(C(=O)c1ccc(=O)n(C)n1)c1nc2ccccc2s1` as the compound, how does the Potency read?
**A.** The Potency was inconclusive: 39.8 µM [activator, single point].

**Q.** Which Potency does the source give for `Cc1ccc(CN2CCSc3ccc(C(=O)Nc4cc(C)cc(C)c4)cc32)cc1` here?
**A.** The Potency was active: 10 µM.

**Q.** `Cc1ccc(CCNC(=O)CCCn2c(=O)c3ccccc3n(CC(=O)Nc3cc(Cl)ccc3C)c2=O)cc1` was tested. Which max response, negative = inhibition did it give?
**A.** Its max response, negative = inhibition is inactive: 8.65%.

**Q.** How did the Potency turn out when `CC(=O)N1CCc2c(sc3nc(SCC(N)=O)n(-c4ccc(F)c(Cl)c4)c(=O)c23)C1` was run?
**A.** Its Potency is inconclusive: 39.8 µM [activator, single point].

**Q.** How did the Potency turn out when `COc1ccc(-c2nc3scc(CCNS(=O)(=O)c4cc(F)ccc4OC)n3n2)cc1OC` was run?
**A.** The Potency was inconclusive: 39.8 µM [activator, single point].

**Q.** For `C#CCn1c(S(=O)(=O)Cc2ccc(C)cc2)nc(-c2ccccc2)c1-c1ccccc1`, which Potency is on record?
**A.** Its Potency is inconclusive: 31.6 µM [inhibitor, single point].

**Q.** Which Potency does the source give for `CCOc1cccc(-c2nnc3n2N=C(c2cc(OC)ccc2OC)CS3)c1` here?
**A.** Its Potency is inconclusive: 39.8 µM [activator, single point].

**Q.** How did the Potency turn out when `CCC1=C(OC(=O)N(CC)CC)N2C(=O)OC(=NCc3ccccc3)[C@]2(C)[C@H]2C1=CC[C@H]1C(=O)N(c3ccccc3)C(=O)[C@H]12` was run?
**A.** Its Potency is inconclusive: 25.1 µM [activator, single point].

**Q.** For `CCCCC(=O)NC(NC(=O)CCCC)c1ccc(OCCC)c(OC)c1`, which Potency is on record?
**A.** The Potency was inconclusive: 20 µM [inhibitor, partial curve, poor fit].

**Q.** Which Potency does the source give for `COc1ccc(C(=O)NCc2nnc(SCC(=O)N3CCc4ccccc43)n2CCc2ccccc2)cc1` here?
**A.** Its Potency is inconclusive: 25.1 µM [activator, single point].
